{"source": "patent US20230416360A1", "about": "(SIMCERE ZAIMING PHARMACEUTICAL, published 2023)", "binders": {"B1": {"name": "S002-NB150-57 VHH-Fc (Fc fusion)", "chain": "QVQLVESGGGLVQAGDSLRLSCAVTGRAYSRSDMGWFRQAPGKEREIVAVITFGGGTDYADSVKGRFTISSEDTKNTLYLQMNSLQPEDTAVYYCAAGFRGSRWSTAARRKEDDYAFWGQGTQVTVSS[human IgG1 Fc with changes cut from this listing]", "notes": "VHH cloned into vector BI3.4-huIgG1 (hinge and human IgG1 Fc), made in HEK293E; also called 5002-NB150-57"}, "B2": {"name": "S002-NB151-64 VHH-Fc (Fc fusion)", "chain": "QVQLVESGGGLVQPGGSLTLSCAASGFDFSFYTMTWVRQAQGKGLEWVSTISTGGGGSNYADSVKGRFTISRDNAKKTLYLQMTSLKPEDTAVYYCASHRRGYMFVSSRKNEYDYWGRGTQVTVSS[human IgG1 Fc with changes cut from this listing]", "notes": "VHH cloned into vector BI3.4-huIgG1 (hinge and human IgG1 Fc), made in HEK293E; also called 5002-NB151-64"}, "B3": {"name": "S002-NB150-152n VHH-Fc (Fc fusion)", "chain": "EVQVVESGGGLVQTGGSLRLSCAASGRPFDWLTVGWFRQAPGKEREFVAAISQSGGRIFYSDSVKGRFTISRDNAKNTAFLQMNSLKPEDTAVYSCAAQMRGYSRAAYPDEYDYWGQGTQVTVSS[human IgG1 Fc with changes cut from this listing]", "notes": "VHH cloned into vector BI3.4-huIgG1 (hinge and human IgG1 Fc), made in HEK293E"}, "B4": {"name": "S002-NB151-14 VHH-Fc (Fc fusion)", "chain": "QVQLVESGGGLVQAGGSLRLSCTTSGGTLSRITMGWFRQAPGKEREFVAAIKWGGSSTPYSDSVKGRFTISRDNAKNTVYLQMDRLVPEDTAVYYCAGGLRGPYSDSVTSSVQYNYWGQGTQVTVSS[human IgG1 Fc with changes cut from this listing]", "notes": "VHH cloned into vector BI3.4-huIgG1 (hinge and human IgG1 Fc), made in HEK293E; also called 5002-NB151-14"}, "B5": {"name": "S002-NB151-13 VHH-Fc (Fc fusion)", "chain": "QVQLVESGGGLVQAGDSLRLSCAASTRIFRSYVMGWFRQAPGKEREAVASIRWSNDTGTYADSVKGRFTISRDNAKNTVYLQMNSLKPEDTAVYSCAADSPPWGRTWYTGYDYWGQGTQVTVSS[human IgG1 Fc with changes cut from this listing]", "notes": "as for B3"}}, "key": {"[1]": {"biological_target": "T1, human CD22 (full length, on cells) (human, UniProt P20273 20-847)", "T1 construct": "Raji cells carry endogenous human CD22; also called CHO-K1-human CD22 2C4; CHO-K1-human CD22 1G5", "T1 sequence": "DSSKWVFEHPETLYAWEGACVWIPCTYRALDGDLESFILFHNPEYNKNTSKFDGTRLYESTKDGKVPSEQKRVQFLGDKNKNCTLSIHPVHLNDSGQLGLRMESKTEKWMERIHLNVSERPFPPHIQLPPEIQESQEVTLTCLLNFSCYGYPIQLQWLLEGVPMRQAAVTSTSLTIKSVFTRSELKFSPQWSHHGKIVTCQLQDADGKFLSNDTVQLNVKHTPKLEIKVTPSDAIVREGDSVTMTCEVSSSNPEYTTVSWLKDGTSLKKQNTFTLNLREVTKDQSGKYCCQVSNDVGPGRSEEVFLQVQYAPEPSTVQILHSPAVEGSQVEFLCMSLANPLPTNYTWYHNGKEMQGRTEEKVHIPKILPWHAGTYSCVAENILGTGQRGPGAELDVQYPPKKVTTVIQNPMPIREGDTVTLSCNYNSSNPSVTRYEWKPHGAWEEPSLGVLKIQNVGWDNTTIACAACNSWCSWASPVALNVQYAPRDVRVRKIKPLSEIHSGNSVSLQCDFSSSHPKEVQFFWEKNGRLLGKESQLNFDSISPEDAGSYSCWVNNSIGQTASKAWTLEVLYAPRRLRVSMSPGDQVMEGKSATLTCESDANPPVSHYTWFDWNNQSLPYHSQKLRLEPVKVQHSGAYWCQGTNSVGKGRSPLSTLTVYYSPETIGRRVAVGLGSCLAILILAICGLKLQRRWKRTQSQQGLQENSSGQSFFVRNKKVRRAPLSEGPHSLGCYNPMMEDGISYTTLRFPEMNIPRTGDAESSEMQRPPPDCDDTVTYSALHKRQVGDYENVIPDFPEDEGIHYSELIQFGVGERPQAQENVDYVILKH", "experiment": "FACS, CHO-K1-human CD22 2C4 cells", "description": "The required cells were scale-up cultured in a T-75 cell culture flask to the logarithmic growth phase. For the adherent cell CHO-K1, the medium was aspirated, the cells were washed 2 times with PBS buffer, and then digested with trypsin. After the digestion was terminated, the cells were washed 2 times with PBS buffer. For suspension cell Raji, the medium supernatant was directly centrifuged and discarded, and the cell pellet was washed 2 times with PBS. […] The mixture was centrifuged and washed 3 times with PBS buffer, Alexa Flour 488-labeled secondary antibody (purchased from Invitrogen, catalog number: A-11013) was added at 50 μl/well, and incubated on ice for 1 hour. The obtained mixture was centrifuged and washed 5 times with PBS, and FACS (FACS Canto™, purchased from BD Company) was used for detection and result analysis. Data analysis was performed by software (CellQuest) to obtain the mean fluorescence density (MFI) of the cells. And then software (GraphPad Prism8) was used for analysis, data fitting, and EC50 value calculation."}, "human CD22-ECD-His [2]": {"biological_target": "T2, human CD22-ECD-His (human, UniProt P20273 20-687)", "T2 construct": "Made in HEK293E, purified on nickel column; also called hCD22-ECD-His; recombinant human CD22-ECD His; not shown: His tag", "T2 sequence": "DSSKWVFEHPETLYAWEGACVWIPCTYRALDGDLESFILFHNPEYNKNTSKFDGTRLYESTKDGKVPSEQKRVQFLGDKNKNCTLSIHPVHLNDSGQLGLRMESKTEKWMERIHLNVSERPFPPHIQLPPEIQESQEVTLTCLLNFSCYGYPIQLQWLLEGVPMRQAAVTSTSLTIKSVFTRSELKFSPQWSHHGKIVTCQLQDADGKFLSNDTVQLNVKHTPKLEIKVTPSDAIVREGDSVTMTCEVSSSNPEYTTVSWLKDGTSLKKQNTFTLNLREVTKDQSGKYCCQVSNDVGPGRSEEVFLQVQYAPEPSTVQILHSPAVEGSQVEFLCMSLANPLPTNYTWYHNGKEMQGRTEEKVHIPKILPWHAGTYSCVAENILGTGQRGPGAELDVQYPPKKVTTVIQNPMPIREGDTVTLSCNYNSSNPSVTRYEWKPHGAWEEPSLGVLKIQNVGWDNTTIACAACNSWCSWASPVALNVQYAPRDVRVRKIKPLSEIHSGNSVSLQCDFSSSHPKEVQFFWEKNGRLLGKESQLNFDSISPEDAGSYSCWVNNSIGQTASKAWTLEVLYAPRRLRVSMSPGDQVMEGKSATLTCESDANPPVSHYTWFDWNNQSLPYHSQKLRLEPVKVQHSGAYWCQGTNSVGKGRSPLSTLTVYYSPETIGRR", "experiment": "ELISA, coated hCD22-ECD-His, antibody 10 nM", "experimental": "(§1) The plate was sealed with plastic film and incubated overnight at 4° C., the plate was washed 2 times with PBS the next day, and then a blocking solution [PBS+2% (w/w) BSA] was added for blocking at room temperature for 2 hours. […] After incubation at 37° C. for 2 hours, the plate was washed 3 times with PBS. HRP (horseradish peroxidase)-labeled secondary antibody (purchased from Sigma, catalog number: A0170) was added, and incubated at 37° C. for 2 hours, and the plate was washed 5 times with PBS. TMB substrate was added at 50 μl/well, and incubated at room temperature for 30 minutes, then a stop solution (1.0 N HCl) was added at 50 μl/well."}, "human CD22-ECD-His [3]": {"biological_target": "T2, human CD22-ECD-His", "experiment": "ELISA, coated hCD22-ECD-His, antibody 0.00001 nM", "experimental": "as §1"}}}
{"binder": "B1", "values": [{"measurement": "EC50", "setting": "[1]", "result": 0.76, "unit": "nM"}, {"measurement": "Max MFI", "setting": "[1]", "result": 26700}, {"measurement": "OD450", "setting": "human CD22-ECD-His [2]", "result": 1.9}, {"measurement": "OD450", "setting": "human CD22-ECD-His [3]", "result": 0.08}]}
{"binder": "B2", "values": [{"measurement": "EC50", "setting": "[1]", "result": 0.66, "unit": "nM"}, {"measurement": "Max MFI", "setting": "[1]", "result": 24500}, {"measurement": "OD450", "setting": "human CD22-ECD-His [2]", "result": 2.03}, {"measurement": "OD450", "setting": "human CD22-ECD-His [3]", "result": 0.11}]}
{"binder": "B3", "values": [{"measurement": "EC50", "setting": "[1]", "result": 1.04, "unit": "nM"}, {"measurement": "Max MFI", "setting": "[1]", "result": 10600}, {"measurement": "OD450", "setting": "human CD22-ECD-His [2]", "result": 2.82}, {"measurement": "OD450", "setting": "human CD22-ECD-His [3]", "result": 0.1}]}
{"binder": "B4", "values": [{"measurement": "EC50", "setting": "[1]", "result": 3.7, "unit": "nM"}, {"measurement": "Max MFI", "setting": "[1]", "result": 11100}, {"measurement": "OD450", "setting": "human CD22-ECD-His [2]", "result": 1.71}, {"measurement": "OD450", "setting": "human CD22-ECD-His [3]", "result": 0.25}]}
{"binder": "B5", "values": [{"measurement": "EC50", "setting": "[1]", "result": 1.36, "unit": "nM"}, {"measurement": "Max MFI", "setting": "[1]", "result": 17600}, {"measurement": "OD450", "setting": "human CD22-ECD-His [2]", "result": 1.87}, {"measurement": "OD450", "setting": "human CD22-ECD-His [3]", "result": 0.2}]}
